{"source": "paper PMC12040169", "about": "(PLOS Biology, 2025)", "note": "Some of the results follow.", "data": [{"test_system": "T1, C. trachomatis L2/434/Bu expressing GFP (CTL2-GFP)", "T1 construct": "L2/434/Bu GFP intracellular growth in HeLa cells", "design": "species or system HeLa; C. trachomatis total inclusion area by high-content imaging, normalised to DMSO", "settings": "total inclusion area; 28.5 h, 10 µM; inhibitor", "procedure,_shortened": "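Following bulk GFP and resorufin fluorescence reads, infected cells were fixed, Hoechst-stained and imaged on a high-content platform. Inclusion total area and number per well served as growth proxies; nuclei counts indicated host viability. MICs were derived as for the fluorescence assay.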", "values": [{"compound": "Sc1nnc(COc2ccccc2)n1/N=C/c1ccccn1", "note": "[CBK265279]", "% of control remaining": 100.369}, {"compound": "c1ccc(COc2ccc3[nH]c4c(c3c2)CCNC42CCN(Cc3ccccc3-c3ccccc3)C2)cc1", "note": "(stereo not shown) [CBK039909]", "% of control remaining": 28.5192}, {"compound": "CCc1nn(CC(=O)N(CC)CC)c(=O)c2cc3ccsc3n12", "note": "[CBK284132]", "% of control remaining": 53.1689}, {"compound": "O=C(O)c1ccc(Sc2ccc(S(=O)(=O)c3ccc(C(=O)O)c(C(=O)O)c3)cc2)cc1", "note": "[CBK261253]", "% of control remaining": 99.3953}, {"compound": "Cc1nnc(SCC(=O)NC2CC3CCC2C3)[nH]1", "note": "(stereo not shown) [CBK270239]", "% of control remaining": 99.0544}, {"compound": "O=C1CCN(Cc2ccccc2)CCN1C(=O)C1CCCC1", "note": "[CBK284829]", "% of control remaining": 93.7597}, {"compound": "O=[N+]([O-])c1ccc(N2CCN(S(=O)(=O)N3CCCC3)CC2)c(Cl)c1", "note": "[CBK264772]", "% of control remaining": 105.882}, {"compound": "COc1cccc(/C=N\\NC(=O)CN2CCN(Cc3ccccc3)CC2)c1O", "note": "[CBK263106]", "% of control remaining": 102.872}, {"compound": "CCNC(=O)CN1CCN(c2ccc(C#N)cc2C(F)(F)F)CC1", "note": "[CBK306112]", "% of control remaining": 80.3367}, {"compound": "NNc1nccc(Nc2ccccc2C(=O)O)n1", "note": "[CBK263145]", "% of control remaining": 78.7251}, {"compound": "O=c1[nH]c(=O)c2cc(S(=O)(=O)Nc3cccc(CCc4ccncc4)c3)ccc2[nH]1", "note": "[CBK286397]", "% of control remaining": 93.5697}, {"compound": "COC(=O)c1cccc2c1CCCN2Cc1nnc(C2CC2)o1", "note": "[CBK304868]", "% of control remaining": 31.1657}, {"compound": "O=C(NC[C@H]1O[C@@H](CC(=O)N2CCCC2)[C@H](O)[C@@H]1O)c1ccc(F)c(Cl)c1", "note": "[CBK288913]", "% of control remaining": 94.343}, {"compound": "O=C(CCc1cccnc1)Nc1ccc(Oc2ccccc2)cc1", "note": "[CBK295168]", "% of control remaining": 110.282}, {"compound": "COc1ccc(CN2CCC(O)CC2)c(OC)c1", "note": "[CBK261522]", "% of control remaining": 86.6002}, {"compound": "Fc1cccc(-c2nc3cnccn3c2NCc2ccco2)c1", "note": "[CBK282323]", "% of control remaining": 100.512}, {"compound": "Cc1cc2n(n1)[C@@H](C(F)F)C[C@@H](C1CCCN(C(=O)C(C)C)C1)N2", "note": "(stereo partly shown) [CBK284722]", "% of control remaining": 52.8558}, {"compound": "O=C(Nc1ccccc1N1CCCNCC1)c1ccc2ccccc2c1", "note": "[CBK038927T]", "% of control remaining": 6.366}, {"compound": "Cc1cc(NC(=O)c2ccc3ccccc3c2)nc2c1c(=O)oc1ccccc12", "note": "[CBK291122]", "% of control remaining": 108.051}, {"compound": "O=C1/C(=C/c2ccc(OCc3cccc4ccccc34)cc2)SC(=S)N1Cc1cccnc1", "note": "[CBK264669]", "% of control remaining": 55.9452}, {"compound": "Cc1ccc(/C=C(\\NC(=O)c2ccccc2)C(=O)N2CCCC2C(=O)O)cc1", "note": "(stereo not shown) [CBK265649]", "% of control remaining": 98.367}, {"compound": "COC(=O)c1ccc(CSc2nnc(-n3sc4ccccc4c3=O)s2)cc1", "note": "[CBK116502]", "% of control remaining": 87.7298}]}]}
